The other results are listed elsewhere or left out.

The test concerns the target T1, OsWOX13 (Oryza sativa, UniProt Q5QMM3 1-267).
T1 sequence: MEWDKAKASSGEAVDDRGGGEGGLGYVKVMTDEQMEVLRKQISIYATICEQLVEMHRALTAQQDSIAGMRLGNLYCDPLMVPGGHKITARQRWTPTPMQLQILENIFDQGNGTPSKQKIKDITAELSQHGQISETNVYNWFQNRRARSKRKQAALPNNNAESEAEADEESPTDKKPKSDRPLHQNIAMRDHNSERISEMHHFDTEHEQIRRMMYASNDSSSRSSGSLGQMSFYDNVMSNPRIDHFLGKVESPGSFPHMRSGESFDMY
Briefly: protein-binding microarray (RPBM); PBS, 2% BSA, 51.3 ng/ul salmon testes DNA, 50 uM zinc acetate, 200 nM TF, 25 C, 1 h; high values mean tight binding. The settings on record: protein: recombinant; tags: N-terminal polyhistidine and DsRed monomer fusion (pET32a); label: CyDye5-dUTP incorporated in the synthesized complementary strand; 3' TTTTT single-stranded linker to array surface; dsDNA, one strand shown. An outline of the steps: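 Transcription factors, each fused N-terminally to a polyhistidine tag and DsRed, were expressed in E. coli BL21-CodonPlus and purified on Ni–NTA. A custom Agilent array was made double-stranded by primer extension with Cy5-dUTP and blocked with 2% BSA. It was incubated with 200 nM protein in PBS, 2% BSA, salmon testes DNA and 50 µM zinc acetate at 25 °C for 1 h, then washed. The binding signal is per-feature fluorescence intensity (arbitrary units) read on an Axon 4000B scanner.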
Consider “AAATTCCGTATCAATCATCTCCCTCCCCAACCCTCCCCTTCGGAGTCACCTAGTGCAG”, for which the binding signal was 7040 fluorescence intensity (a.u.). “TTTAATTAGTTAAGATTAAAATTGAGTTTAAGATGTAAACCGGAGTCACCTAGTGCAG”: the binding signal is 19000 fluorescence intensity (a.u.). Under “ATAGATAATTTATTCAATTGGATTTATCAGTTTGAGAGGTCGGAGTCACCTAGTGCAG” stands 30500 fluorescence intensity (a.u.).

With “AATGTTTTAATCACATTGATTAGCAACTAATTAATCTTAGCGGAGTCACCTAGTGCAG”, the binding signal is 47100 fluorescence intensity (a.u.). Under “AAAACAAGATTATGAATTTTAACGTGAAAATTTCAAGTTTCGGAGTCACCTAGTGCAG” stands 4070 fluorescence intensity (a.u.); under “AGTCAGATACCAATCAACACACCCAGGGTACGAGCTAGGCCGGAGTCACCTAGTGCAG”, 10300 fluorescence intensity (a.u.). Under “TGGTGATTGGGTGTTGTGCCGGTCATCTTCTCCCTCGCCGCGGAGTCACCTAGTGCAG” stands 37400 fluorescence intensity (a.u.); under “GGTTTCCGTGTCAACGTTTGACTGTCCGTCTTATATGATTCGGAGTCACCTAGTGCAG”, 3450 fluorescence intensity (a.u.).

Turning to “TAACCAAATGATTAGGTCCCTGCTTAATAAAATAGTTAAGCGGAGTCACCTAGTGCAG”, the binding signal is 8110 fluorescence intensity (a.u.). Under “TCCTTAATTACATAAGAATTATATAAAGGTCATGAACGAACGGAGTCACCTAGTGCAG” stands 16300 fluorescence intensity (a.u.). Under “GGGGATTGAGATCCTATGACGTTACTGTTCACCGTAACTGCGGAGTCACCTAGTGCAG” stands 3720 fluorescence intensity (a.u.); under “ACAACATAAATTGTCGTCCTCATCTCCAATTCTCCACAGCCGGAGTCACCTAGTGCAG”, 3300 fluorescence intensity (a.u.). Under “ATAAAAGTAAATTTAAATAATAATCTAAATTTATTATTTTCGGAGTCACCTAGTGCAG” stands 4270 fluorescence intensity (a.u.); under “TAATAATTATAGTGACTTGAGTAGCACCATAATATTCTAACGGAGTCACCTAGTGCAG”, 12400 fluorescence intensity (a.u.); under “TATAAATTATCAGTGTCATCACACAATGTATGTACATTGTCGGAGTCACCTAGTGCAG”, 7480 fluorescence intensity (a.u.). As to “TATAATTACGATATAACATATAATTACGATATAACTTGTACGGAGTCACCTAGTGCAG”, the binding signal was 12400 fluorescence intensity (a.u.).

Take “TCACTAATCAATTTTATTATCATTCGCGGCCAGTTCACAGCGGAGTCACCTAGTGCAG”: the binding signal is 20300 fluorescence intensity (a.u.). Under “CAATTCTGAAATTGACAGGTTGAATTTGCTAATTGAGGTACGGAGTCACCTAGTGCAG” stands 43600 fluorescence intensity (a.u.); under “TTAAGGTAAAATTTGATTGGAATCAGCACGAGACTGTGCTCGGAGTCACCTAGTGCAG”, 24000 fluorescence intensity (a.u.); under “AGGAGTACTTAATTAATCATAAGAAAATACGTCGCTCTATCGGAGTCACCTAGTGCAG”, 6590 fluorescence intensity (a.u.). Under “AATTAATTATAAATATTAAACGTAGACTATTAATAAAACCCGGAGTCACCTAGTGCAG” stands 16900 fluorescence intensity (a.u.); under “TATGATGATGGGAAGCATTTTGGAAGCATGCAGTGGTTTGCGGAGTCACCTAGTGCAG”, 6030 fluorescence intensity (a.u.). Under “GCGACAGATTATTTAACGGTGTAAACCTTTTAGAGTAGTGCGGAGTCACCTAGTGCAG” stands 3770 fluorescence intensity (a.u.); under “TTGATTAAATACAAAATTAATAGTCAAAGTTTTAAAAGTTCGGAGTCACCTAGTGCAG”, 18200 fluorescence intensity (a.u.); under “CTAATCCATCGCAAAATTTGTACTAATCAAGTACTTCCACCGGAGTCACCTAGTGCAG”, 3490 fluorescence intensity (a.u.). Consider “ACAAATTATACCAAAACATCCAGAACAACCACCTCTCAATCGGAGTCACCTAGTGCAG”, for which the binding signal was 3700 fluorescence intensity (a.u.). Under “TACTGTAGCACCACATTGTCAATCATGGCGCAATTATGCTCGGAGTCACCTAGTGCAG” stands 6910 fluorescence intensity (a.u.); under “TGGCACAAGTGATTGGGACGTTGCCCTATCAATCGCGGCACGGAGTCACCTAGTGCAG”, 15900 fluorescence intensity (a.u.).

With “GATCATTTCAGTGATTAATTTAATTGGAAAAGTAATTCAACGGAGTCACCTAGTGCAG”, the binding signal was 6700 fluorescence intensity (a.u.).

Consider “TCCATGTCATTTTCTCCCATCACAGTAGTGTGAATTGTGACGGAGTCACCTAGTGCAG”, for which the binding signal was 4180 fluorescence intensity (a.u.). For “CACAGGATTGAGAGAATGGCTTCCAGCTCACTCGGGGTTTCGGAGTCACCTAGTGCAG”, the binding signal is 22600 fluorescence intensity (a.u.). Under “AAAATATGTGGGTGATTTATTACAATAGAGTATGTGGTGGCGGAGTCACCTAGTGCAG” stands 3580 fluorescence intensity (a.u.); under “CCTCGTCAATCCCCAAACCCTCCTCCTCCTCTCCGGCGATCGGAGTCACCTAGTGCAG”, 3510 fluorescence intensity (a.u.); under “TTTGCCTTTTGATTGTATGACTGGAATGCTTGTTGAGCTTCGGAGTCACCTAGTGCAG”, 11900 fluorescence intensity (a.u.). Under “TAAATGACTGAAACATTTTCGATCTACTTAGTGAAACAATCGGAGTCACCTAGTGCAG” stands 4580 fluorescence intensity (a.u.).

For the sequence “CAGCATTGACAGGCACTTAGCTAAGTACGTAGCTATATAGCGGAGTCACCTAGTGCAG”, the binding signal was 11000 fluorescence intensity (a.u.). Under “CGTTTCATTAATTCTGACATTTTATCACACAAACATGCATCGGAGTCACCTAGTGCAG” stands 3740 fluorescence intensity (a.u.); under “TTTTAGTTATAAATCACTGTAATTTTAGCATATTGCAACCCGGAGTCACCTAGTGCAG”, 4020 fluorescence intensity (a.u.). Under “CCTTGCCTGACAACAATCAATTAGTTTGCTACTGCTACTCCGGAGTCACCTAGTGCAG” stands 16100 fluorescence intensity (a.u.); under “TTATAATAAGCTGACAGAGAATAAACTGTGAGTTGTTTGTCGGAGTCACCTAGTGCAG”, 3760 fluorescence intensity (a.u.). Under “AATAGACATATAAATGTCACTGTCTAAATAATAGGGACCTCGGAGTCACCTAGTGCAG” stands 5220 fluorescence intensity (a.u.); under “TGTAATTAAATTTGTGATTTGTGAACCTTCTTCAATTCTACGGAGTCACCTAGTGCAG”, 31200 fluorescence intensity (a.u.).

The values above are taken from article PMC7819943, “Rice protein-binding microarrays: a tool to detect cis-acting elements near promoter regions in rice”.
